Paper PMC7005872
Substitutions are numbered along the chain they refer to. Numbers in names are those of the source. Results are given in words; binding and its absence hold for the method and conditions named. Binding seen in cells or lysates may run through a third protein. Some binding calls cover weakened binding; strength is not graded here. For some assays here: Sequences can lack the tags named with a protein.

Columns and labels:
[1] = molecular target: T1, endogenous TBK1 (human (endogenous in HeLa)) (UniProt Q9UHD2); test: co-IP; endogenous proteins; lysis in 10 mM Tris-HCl pH 7.4, 150 mM NaCl, 10 mM MgCl2, 1 mM EDTA, 1% Triton X-100; antibody and Protein G Sepharose at 4 °C; rabbit immunoglobulin fraction as negative control
T1 sequence: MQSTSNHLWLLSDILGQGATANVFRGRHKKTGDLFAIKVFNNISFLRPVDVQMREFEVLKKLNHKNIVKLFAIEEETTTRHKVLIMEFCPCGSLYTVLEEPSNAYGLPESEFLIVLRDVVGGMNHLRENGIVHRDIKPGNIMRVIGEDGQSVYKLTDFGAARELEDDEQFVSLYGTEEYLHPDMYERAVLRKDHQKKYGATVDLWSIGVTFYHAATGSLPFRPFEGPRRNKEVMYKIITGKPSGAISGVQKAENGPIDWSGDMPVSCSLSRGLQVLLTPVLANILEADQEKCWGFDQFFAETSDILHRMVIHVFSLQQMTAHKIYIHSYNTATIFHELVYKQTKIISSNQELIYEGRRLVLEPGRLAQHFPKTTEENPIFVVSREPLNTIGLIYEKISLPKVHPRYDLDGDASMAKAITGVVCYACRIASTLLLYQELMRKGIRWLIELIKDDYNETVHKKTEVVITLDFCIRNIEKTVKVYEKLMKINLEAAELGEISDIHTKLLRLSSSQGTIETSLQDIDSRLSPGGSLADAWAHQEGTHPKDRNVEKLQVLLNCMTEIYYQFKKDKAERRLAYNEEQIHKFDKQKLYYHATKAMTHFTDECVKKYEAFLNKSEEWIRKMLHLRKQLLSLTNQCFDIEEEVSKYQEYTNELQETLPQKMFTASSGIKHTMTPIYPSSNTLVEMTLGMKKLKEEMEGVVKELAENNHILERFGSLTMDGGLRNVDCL

GFP-TBK1 K38A = molecular target: T2, GFP-TBK1 K38A (UniProt Q9UHD2); test: co-IP; transiently expressed tagged proteins; lysis in 10 mM Tris-HCl pH 7.4, 150 mM NaCl, 10 mM MgCl2, 1 mM EDTA, 1% Triton X-100; antibody 2 h and Protein G Sepharose 1 h at 4 °C; five washes; immunoblot
T2 sequence: T1 sequence with K38A

GFP-TBK1 S172A = molecular target: T3, GFP-TBK1 S172A (UniProt Q9UHD2); test: as above
T3 sequence: T1 sequence with S172A

GFP-TBK1 WT, Q9UHD2 = molecular target: T4, GFP-TBK1 WT, Q9UHD2; test: co-IP; GFP-TBK1 and FLAG-TBK1 co-expressed in GAS-infected HeLa WT cells; immunoblot; conditions: remark: other sources report otherwise
T4 chain: T1 sequence

GFP-TBK1-S172E = GFP-TBK1-S172E (UniProt Q9UHD2); test: co-IP; lysate of HeLa WT or TBC1D9-KO cells transfected with GFP-TBK1 S172E and FLAG-TBK1 S172E, immunoprecipitated with GFP-Trap

B1: endogenous TBC1D9 (protein, UniProt Q6ZT07 1-1266)
chain: MWVNPEEVLLANALWITERANPYFILQRRKGHAGDGGGGGGLAGLLVGTLDVVLDSSARVAPYRILYQTPDSLVYWTIACGGSRKEITEHWEWLEQNLLQTLSIFENENDITTFVRGKIQGIIAEYNKINDVKEDDDTEKFKEAIVKFHRLFGMPEEEKLVNYYSCSYWKGKVPRQGWMYLSINHLCFYSFLMGREAKLVIRWVDITQLEKNATLLLPDVIKVSTRSSEHFFSVFLNINETFKLMEQLANIAMRQLLDNEGFEQDRSLPKLKRKSPKKVSALKRDLDARAKSERYRALFRLPKDEKLDGHTDCTLWTPFNKMHILGQMFVSTNYICFTSKEENLCSLIIPLREVTIVEKADSSSVLPSPLSISTRNRMTFLFANLKDRDFLVQRISDFLQQTTSKIYSDKEFAGSYNSSDDEVYSRPSSLVSSSPQRSTSSDADGERQFNLNGNSVPTATQTLMTMYRRRSPEEFNPKLAKEFLKEQAWKIHFAEYGQGICMYRTEKTRELVLKGIPESMRGELWLLLSGAINEKATHPGYYEDLVEKSMGKYNLATEEIERDLHRSLPEHPAFQNEMGIAALRRVLTAYAFRNPNIGYCQAMNIVTSVLLLYAKEEEAFWLLVALCERMLPDYYNTRVVGALVDQGVFEELARDYVPQLYDCMQDLGVISTISLSWFLTLFLSVMPFESAVVVVDCFFYEGIKVIFQLALAVLDANVDKLLNCKDDGEAMTVLGRYLDSVTNKDSTLPPIPHLHSLLSDDVEPYPEVDIFRLIRTSYEKFGTIRADLIEQMRFKQRLKVIQTLEDTTKRNVVRTIVTETSFTIDELEELYALFKAEHLTSCYWGGSSNALDRHDPSLPYLEQYRIDFEQFKGMFALLFPWACGTHSDVLASRLFQLLDENGDSLINFREFVSGLSAACHGDLTEKLKLLYKMHVLPEPSSDQDEPDSAFEATQYFFEDITPECTHVVGLDSRSKQGADDGFVTVSLKPDKGKRANSQENRNYLRLWTPENKSKSKNAKDLPKLNQGQFIELCKTMYNMFSEDPNEQELYHATAAVTSLLLEIGEVGKLFVAQPAKEGGSGGSGPSCHQGIPGVLFPKKGPGQPYVVESVEPLPASLAPDSEEHSLGGQMEDIKLEDSSPRDNGACSSMLISDDDTKDDSSMSSYSVLSAGSHEEDKLHCEDIGEDTVLVRSGQGTAALPRSTSLDRDWAITFEQFLASLLTEPALVKYFDKPVCMMARITSAKNIRMMGKPLTSASDYEISAMSG
B1 was tested, and the binding [1] was “binds”.

B2: FLAG-TBC1D9 (protein, UniProt Q6ZT07 1-1266)
chain: B1 chain
B2 was tested, and the binding (GFP-TBK1 K38A) was “binds” and the binding (GFP-TBK1 S172A) was “no binding”.

B3: GFP-TBK1 WT, Q9UHD2 1-729 (protein)
chain: T1 sequence
For B3, the binding (GFP-TBK1 WT, Q9UHD2) was “binds”.

B4: GFP-TBK1-S172E (protein, UniProt Q9UHD2 1-729)
chain: T1 sequence with S172E
With B4 the binding (GFP-TBK1-S172E) was “binds”.
